Results: PubChem BioAssay AID624296 (National Center for Advancing Translational Sciences (NCATS), 2012)
Among all 350,000 compounds or so, about 9,900 (2.8%) were called active. The shares of active, inactive and inconclusive entries below differ from those in the screen. Calls follow the shape of the dose curve; as a rule, active = well fitted activation curve with a large enough effect; inconclusive = small, poorly fitted or top-dose-only effect; inactive = no such curve, though single readings can be large or run the other way. No potency is given beside an inconclusive call; the fits are too rough.

experiment: A quantitative high throughput screen for small molecules that induce DNA re-replication in MCF 10a normal breast cells.; also: nearly all actives have a fitted effect of over 50% in size; as to activity, positive = re-replication: % of control where 0% means no effect; details: MCF 10A DNA re-replication, Hoechst nuclear intensity, 48 h; activity, positive = re-replication: at 46.1 µM (top of the series)
Potency is read from the fitted curve at half-maximal effect; tags tell the direction and shape of the fitted curve.

Compound	Potency	activity, positive = re-replication
O=C(Cc1ccc(NC(=O)C2CCN(C(=O)C3CCC3)CC2)cc1)Nc1cccc(C(=O)N2CCCC2)c1	inconclusive [activator, full curve, poor fit]	–
O=C1c2[nH]nc(-c3ccccc3O)c2C(c2cccc(Cl)c2)N1Cc1ccco1 (stereo not given)	active: 7.31 µM	–
COC(=O)c1ccc(/C=C/c2c(-c3ccsc3)sc3ccccc23)cc1	active: 16.4 µM	–
CC(C)OCCCNC(=O)c1c(N)n(/N=C/c2cccs2)c2nc3ccccc3nc12	active: 8.2 µM	–
CCN(CC)CC(=O)N1c2ccccc2CCc2ccc(NC(=O)c3cc(OC)c(OC)c(OC)c3)cc21	inconclusive [activator, single point]	–
CCc1cc2c(=O)c(-c3cnn(-c4ccccc4)c3)c(C)oc2cc1OCC(=O)Nc1ccc(F)c(F)c1	inconclusive [activator, partial curve, poor fit]	–
CC1CN(c2nc3c(c(=O)[nH]c(=O)n3C)n2Cc2ccccc2F)CC(C)O1 (stereo not given)	–	inactive: -0.246%
CC1CCN(C2=NC(=O)/C(=C/c3ccccc3F)S2)CC1	inconclusive [activator, partial curve, poor fit]	–
O=c1cc(O)c2sc(Nc3ccc(F)cc3)nc2[nH]1	active: 16.4 µM	–
O=C(CSc1nnc(CNC(=O)c2c(F)cccc2F)o1)NCc1ccco1	–	inactive: -0.487%
COc1ccccc1CN(C)C(=O)C(NC(=O)Cc1cccc2ccccc12)C(C)C (stereo not given)	–	inactive: -0.327%
O=C(/C=C/c1ccco1)NC(=S)Nc1cc(C(F)(F)F)ccc1N1CCOCC1	inconclusive [activator, full curve, poor fit]	–
C=CCC[C@@H](Cc1ccc(F)cc1)C(=O)OC[C@@H](C)NC(=O)[C@@H](CC=C)CC(=O)N[C@H](CO)Cc1ccccc1	inconclusive [activator, full curve, poor fit]	–
Cn1cc(/C=N/n2cnc3scc(-c4ccccc4)c3c2=O)c2ccccc21	inconclusive [activator, full curve, poor fit]	–
CC(C)NC(=O)COC(=O)c1cc(F)c(F)cc1Cl	inconclusive [activator, full curve, poor fit]	–
COc1ccc(NC(=O)Cc2c(SC)c3ccccc3n2Cc2ccccc2)cc1	inconclusive [activator, single point]	–
CC1CCc2sc(C(=O)NC3CCN(Cc4ccccc4)CC3)cc2C1 (stereo not given)	inconclusive [activator, single point]	–
C[C@@]12C(=O)Nc3cc(F)c(F)cc3C(=O)N1[C@H]1c3cc(Cl)ccc3OC[C@@H]1[C@@H]2c1ccccc1	–	inactive: 5.24%
O=C(Cn1cnc2c(NCc3ccccc3)ncnc21)NCC1CCCO1 (stereo not given)	–	inactive: -2.09%
CC1(c2nnc(-c3ccncc3)o2)CC(c2ccc(Cl)cc2)=NO1 (stereo not given)	active: 9.2 µM	–
COc1ccccc1NC(=O)Nc1nc(CC(=O)Nc2cccc(F)c2)cs1	inconclusive [activator, single point]	–
O=C1NC(Cc2c[nH]c3ccccc23)C(=O)N1Cc1ccc(CN2C(=O)NC(Cc3c[nH]c4ccccc34)C2=O)cc1 (stereo not given)	active: 20.6 µM	–

Compound	Potency	activity, positive = re-replication
Cc1cc(=O)n(CC(=O)O)c2ccccc12	inconclusive [activator, partial curve, poor fit]	–
CC(C)c1ccc(NC(=O)CSc2nc3ccccc3nc2N2CCCC2)cc1	inconclusive [activator, single point]	–
Cc1nn(C(C)(C)C)c(OC(=O)C2CCCC2)c1S(=O)(=O)c1ccccc1	inconclusive [activator, partial curve, poor fit]	–
Cc1nccn1CCN(C)Cc1cn(Cc2ccccc2)nc1-c1ccc2c(c1)OCO2	–	inactive: 22.9%
CCOC(=O)C1=C(CN2CCCCCC2)NC(=O)NC1c1ccc2c(c1)OCO2 (stereo not given)	–	inactive: -7.24%
CCCNc1c(NS(=O)(=O)c2c(F)c(F)c(F)c(F)c2F)c(=O)oc2ccccc12	inconclusive [activator, single point]	–
N#CC1=C(N)Oc2c(oc(CO)cc2=O)C1c1ccccc1[N+](=O)[O-] (stereo not given)	inconclusive [activator, single point]	–
CCOC(=O)CSC1=NC(=O)/C(=C/c2ccc(Br)cc2)S1	inconclusive [activator, full curve, poor fit]	–
COc1ccc(-n2c(C)cc(-c3csc(N)n3)c2C)cc1	inconclusive [activator, partial curve, poor fit]	–
CCOc1ccccc1NC(=O)CN1CCC(NC(=O)Nc2ccccc2)CC1	inconclusive [activator, partial curve, poor fit]	–
CCN1CCN(c2nc(N(C)c3ccccc3)nc(N)c2[N+](=O)[O-])CC1	–	inactive: 2.09%
COC(=O)c1ccc(Nc2cc(C)nc3ccc(C)cc23)cc1	active: 18.4 µM	–
CCOC(=O)c1oc2c(CN3CCN(CCO)CC3)c(O)c(CC)cc2c(=O)c1-c1nc2ccccc2s1	inconclusive [activator, single point]	–
CC1CCCC(N2CCN(C(=O)c3ccc([N+](=O)[O-])cc3)CC2)C1 (stereo not given)	inconclusive [activator, single point]	–
O=C(Nc1cccc(Cl)c1)Nc1nc(-c2ccccc2)cs1	active: 0.82 µM	–
O=C(CCN1CCc2ccccc2C(c2ccccc2)C1)c1ccc2c(c1)OCCO2 (stereo not given)	active: 5.17 µM	–
CCc1ccc(/C=C2/Sc3ccccc3N(CC(=O)NCCCN3CCOCC3)C2=O)cc1	inconclusive [activator, single point]	–
CC(C)N(C(=O)[C@H]1C[C@H](CC(=O)NCc2cccc(C(F)(F)F)c2)C(=O)N2CCc3c([nH]c4cc(-c5ccco5)ccc34)[C@]12C)C(C)C	–	inactive: -0.281%
CN(CCOc1ccccc1)C(=O)C1CCN(C(=O)c2ccc(F)cc2)CC1	–	inactive: -2.76%
COc1ccccc1N1CCN(S(=O)(=O)CCNC(=O)c2cc(OC)c(OC)c(OC)c2)CC1	inconclusive [activator, single point]	–
S=c1[nH]nc(C2CCCCC2)n1/N=C/C=C/c1ccccc1	inconclusive [activator, single point]	–
CC12C=CC(=O)C=C1CCC1C3CCC(O)(C(=O)CO)C3(C)CC3OC312 (stereo not given)	inconclusive [activator, single point]	–

Compound	Potency	activity, positive = re-replication
C/C(=N/NC(=O)c1ccc(C)s1)c1cccc(NC(=O)COc2ccc(Cl)cc2Cl)c1	active: 9.2 µM	–
Cc1ccc(NS(=O)(=O)c2ccc3c(c2)NC(=O)CCS3)c(Br)c1	–	inactive: -0.0465%
O=C(N/N=C/c1cccn1-c1cccc(C(=O)O)c1)Nc1ccccc1	inconclusive [activator, partial curve, poor fit]	–
CN(c1ccccc1C(=O)Nc1ccc(S(=O)(=O)N2CCOCC2)cc1)S(C)(=O)=O	–	inactive: -1.96%
Cc1c(C(=O)c2ccc(N(C)C)cc2)c2ccccn2c1CCC#N	inconclusive [activator, full curve, poor fit]	–
CCOC(=O)C1(CC2CCCCO2)CCN(Cc2cc3ccccc3[nH]2)CC1 (stereo not given)	inconclusive [activator, partial curve, poor fit]	–
CC1=CC(C)(C)N(C(=O)CSc2nnc(N)s2)c2cc(C)c(C)cc21	inconclusive [activator, partial curve, poor fit]	–
O=C(c1cc(-c2ccc(F)cc2)on1)N1CCCc2ccccc21	inconclusive [activator, full curve, poor fit]	–
COc1ccc2c(c1OC)C(C1c3c(cc4c(c3OC)OCO4)CCN1C)OC2=O (stereo not given)	inconclusive [activator, partial curve]	–
CCOCCN1CCN(c2c(CC)c(C)nc3cc(-c4cc(OC)cc(OC)c4)nn23)CC1	inconclusive [activator, single point]	–
O=C1CSC(=S)N1c1cccc(O)c1	inconclusive [activator, single point]	–
COc1cc2nc(N(CCCN(C)C)C(=O)c3ccc(S(=O)(=O)N4CCc5ccccc54)cc3)sc2cc1OC	–	inactive: 4.68%
Cc1ccc(-c2nn3c(C)nnc3c3ccccc23)cc1S(=O)(=O)NC(C)c1ccccc1 (stereo not given)	inconclusive [activator, single point]	–
Cc1cccc(NC(=O)C2CCCN2C(=O)Oc2ccccc2)c1 (stereo not given)	inconclusive [activator, partial curve, poor fit]	–
Cc1cccc(NC(=S)N/N=C2/CCCCc3ccccc32)c1	inconclusive [activator, single point]	–
CCC(=O)N1CCc2cc(S(=O)(=O)Nc3ccccc3C)ccc21	inconclusive [activator, single point]	–
C/C(=N\NC(=S)NC1CCCCC1)c1ccc(O)cc1	–	inactive: 5.48%
O=C(NCCn1cc(SCc2ccc(F)cc2)c2ccccc21)c1ccccc1F	inconclusive [activator, partial curve, poor fit]	–
O=C(CSc1nccn(-c2ccc3c(c2)OCCO3)c1=O)Nc1ccccc1	–	inactive: 1.15%
CC#CCOC(=O)c1c(C)nc2sc3c(c2c1N)CCC(O)C3 (stereo not given)	inconclusive [activator, partial curve, poor fit]	–
COc1ccc2sc(-c3ccccc3OC)c(-c3ccc4c(c3)OCCO4)c2c1	inconclusive [activator, single point]	–
